Laboratory results from paper PMC4336329 (PLoS ONE, 2015).
The campaign covered roughly 310,000 compounds. About 2,200 (0.71%) showed an effect of 50% or more. The effect is printed as a negative number. This is one part of the list.

Biological target: human ether-à-go-go-related gene (hERG) potassium channel (human, UniProt Q12809)
Assay: primary screen, population patch clamp on CHO cells stably expressing hERG

Sequence of human ether-à-go-go-related gene (hERG) potassium channel (Q12809 whole entry, looked up): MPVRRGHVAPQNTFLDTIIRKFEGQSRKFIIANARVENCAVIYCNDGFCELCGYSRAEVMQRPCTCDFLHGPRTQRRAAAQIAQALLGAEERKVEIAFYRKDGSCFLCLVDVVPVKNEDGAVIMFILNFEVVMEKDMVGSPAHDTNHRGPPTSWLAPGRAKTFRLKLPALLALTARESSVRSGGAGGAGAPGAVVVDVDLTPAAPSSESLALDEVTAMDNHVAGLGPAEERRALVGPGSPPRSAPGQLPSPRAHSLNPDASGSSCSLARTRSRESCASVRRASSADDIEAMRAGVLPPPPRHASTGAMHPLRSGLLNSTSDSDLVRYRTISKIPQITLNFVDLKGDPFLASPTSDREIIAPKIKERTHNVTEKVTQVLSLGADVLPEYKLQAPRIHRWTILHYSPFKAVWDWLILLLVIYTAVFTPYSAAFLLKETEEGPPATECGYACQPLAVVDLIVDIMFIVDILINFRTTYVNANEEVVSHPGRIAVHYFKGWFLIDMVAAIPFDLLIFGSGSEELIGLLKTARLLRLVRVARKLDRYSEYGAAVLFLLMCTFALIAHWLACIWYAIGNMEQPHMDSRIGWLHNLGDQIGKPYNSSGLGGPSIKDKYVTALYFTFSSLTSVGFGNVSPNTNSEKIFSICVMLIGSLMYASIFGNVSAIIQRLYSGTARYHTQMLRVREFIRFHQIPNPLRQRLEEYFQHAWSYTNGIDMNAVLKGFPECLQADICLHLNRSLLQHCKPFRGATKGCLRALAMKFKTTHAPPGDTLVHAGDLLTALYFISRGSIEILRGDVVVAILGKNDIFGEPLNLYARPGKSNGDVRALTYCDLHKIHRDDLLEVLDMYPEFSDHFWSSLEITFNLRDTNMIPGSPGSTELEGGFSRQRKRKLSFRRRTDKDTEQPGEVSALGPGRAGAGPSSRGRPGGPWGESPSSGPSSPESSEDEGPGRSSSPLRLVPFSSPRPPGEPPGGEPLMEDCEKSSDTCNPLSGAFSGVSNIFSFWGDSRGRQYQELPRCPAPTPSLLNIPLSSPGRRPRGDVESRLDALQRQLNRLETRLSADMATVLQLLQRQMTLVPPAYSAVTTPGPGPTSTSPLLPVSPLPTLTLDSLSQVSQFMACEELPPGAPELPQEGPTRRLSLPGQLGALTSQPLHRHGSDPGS

Compound	hERG current change (%, negative = inhibition) at 1uM
CN(C)c1nc(NC(C)(C)C)nc(SCC(=O)Nc2ccccc2)n1	7.15%
CCOc1cc2[nH]c(=O)n(CCCC(=O)NCc3ccco3)c(=O)c2cc1OCC	6.78%
CCOc1cc(CNCCc2ccc(S(N)(=O)=O)cc2)ccc1OCc1ccccc1.Cl	-26%
CCOC(=O)C1=C(O)/C(=C\c2cccs2)N=C1C	5.88%
Cc1ccc(S(=O)(=O)N2CCCC(C(=O)Nc3ccc(NC(=O)c4ccccn4)cc3)C2)cc1 (stereo not drawn)	9.61%
CS/C(=N\S(=O)(=O)c1ccccc1)c1ccccc1	14.6%
CCC(=O)N(Cc1cccs1)C1CCOC(C)(C)C1 (stereo not drawn)	12.6%
O=C(Nc1cc(C(F)(F)F)ccc1Cl)C(Sc1cccc[n+]1[O-])c1ccccc1 (stereo not drawn)	10.7%
COc1ccc(S(=O)(=O)N2CCCCCC2)cc1C(=O)N1CCCC(C(F)(F)F)C1 (stereo not drawn)	5.89%
CCc1ccc(CN(C)C(=O)c2cc(S(=O)(=O)N3CCN(CC)CC3)ccc2Cl)cc1	5.61%
Cc1cc(C=O)c(C)n1-c1ccc(NC2CCCC2)c([N+](=O)[O-])c1	4.18%
COc1cccc(-c2csc(N3CCN(Cc4ccccc4)CC3)n2)c1	9.14%
O=[N+]([O-])c1ccccc1CN1CCN(S(=O)(=O)Cc2ccccc2)CC1	2.33%
Cc1nc(Sc2ccc(Cl)cc2)c(C#N)c(C)c1[N+](=O)[O-]	7.49%
C=C(C)c1cccc(C(C)(C)NC(=O)Nc2ccc3[nH]c(=O)[nH]c3c2)c1	2.45%
Cc1[nH]c(C)c(S(=O)(=O)N2CCN(c3cccc(Cl)c3)CC2)c1C(=O)N1CCCC1	9.64%
O=C(CN1CCOCC1)Nc1ccc(N2CCN(c3ccccc3)CC2)c(F)c1	11.9%
CS(=O)(=O)N(CC(=O)Nc1ccccc1C(=O)N1CCOCC1)c1ccc(F)c(Cl)c1	14.2%
OC(c1ccccc1)c1nccn1Cc1ccccc1 (stereo not drawn)	7.15%
CNc1nc(SC)nc2ccccc12	16.4%
Cc1cc(C)n(CCOc2nonc2N)n1	5.69%
CCN1CCN(C(=O)CN(C)S(=O)(=O)c2ccc3ccccc3c2)CC1	10.6%
CCOc1cc2c(C#N)c(N3CCCC3)nc(N)c2c(N)n1	-0.114%

Compound	hERG current change (%, negative = inhibition) at 1uM
CC(NC(=O)CCSCc1ccccc1F)c1ccccc1 (stereo not drawn)	13.6%
CCOC(=O)N/N=C(C)/C=C/c1ccco1	11%
O=C(CSc1ccccc1F)NC1CCS(=O)(=O)C1 (stereo not drawn)	9.8%
O=C(CNC(=O)c1cccs1)OCC(=O)c1ccccc1	12.6%
CC(CCc1ccccc1)NC(=O)CN1CCSc2ccccc21 (stereo not drawn)	11.9%
Cc1cc(C)cc(OC(C)C(=O)Nc2ccccc2C(=O)NCc2cccnc2)c1 (stereo not drawn)	14.2%
CC(=O)Nc1cccc(NC(=O)C2CCN(C(=O)c3ccco3)CC2)c1	11.4%
CCCCn1c(N)c(N(CCOC)C(=O)CN(C)S(=O)(=O)c2ccc(Cl)cc2)c(=O)[nH]c1=O	15.6%
O=C(OC(C(=O)NCC1CCCO1)c1ccc(F)cc1)c1cccs1 (stereo not drawn)	0.0575%
Cc1nc(-c2ccc(Cl)cc2)sc1C1(C)CC(c2cccc(F)c2)=NO1 (stereo not drawn)	9.58%
C=CCn1c(=O)c2ccccc2n2c(SCC(=O)Nc3sc(C)c(CC)c3C(=O)OCC)nnc12	13.8%
CSCCNC(C)=O	15.3%
COC(=O)c1ccc(COC(=O)c2[nH]c(C)c(C(C)=O)c2C)o1	14.2%
CC1(C)C2([N+](=O)[O-])CNCC1([N+](=O)[O-])CNC2	3.17%
Cc1ccc(O)c(NC(=O)c2cc(-c3ccccc3Cl)on2)c1	23.9%
COC(=O)c1c[nH]n2c(=O)c(Cl)c(C)nc12	12.1%
NS(=O)(=O)c1ccc(CCNS(=O)(=O)c2ccc(Cl)nc2)cc1	14.8%
O=C(COC(=O)c1n[nH]c2ccccc12)NC(=O)NC12CC3CC(CC(C3)C1)C2	2.58%
Cc1cccc(C)c1NC(=O)c1c(C)nn(-c2ccccc2)c1Cl	-2.32%
CCOC(=O)C1=C(C)OC(N)=C(C#N)C1c1ccc(C)o1 (stereo not drawn)	7.95%
Cc1cc(=O)[nH]c(N/N=C/c2ccco2)n1	8.8%
CC(=O)Nc1cccc(C(=O)OC(C)C(=O)NC2CCCc3ccccc32)c1 (stereo not drawn)	13.9%
O=C(c1ccc(Cn2c(=S)[nH]c3ccccc3c2=O)cc1)N1CCN(c2ccccn2)CC1	10.5%

Compound	hERG current change (%, negative = inhibition) at 1uM
COc1ccc(C2C3=C(Nc4ncnn42)c2ccccc2CC3)cc1OC (stereo not drawn)	11.5%
Cc1ccc(NC(=O)COc2cccnc2[N+](=O)[O-])cc1S(=O)(=O)N1CCCCC1	5.19%
O=C(Nc1ccc(Cl)cc1)Nc1ccc(-c2cnco2)cc1	10.7%
C=COC(=O)CSc1nc(-c2cccs2)ccc1C#N	12.6%
COCC(C)n1c(C)cc(C(=O)COC(=O)c2oc3ccccc3c2C)c1C (stereo not drawn)	6.64%
O=C(O)c1cc(NCc2ccc(F)cc2)ccc1N1CCOCC1	3.26%
Cc1ccc(NC(=O)c2ccco2)c([N+](=O)[O-])c1	12.9%
COC(=O)c1ccc(-c2sc3nc(N4CCOCC4)c4c(c3c2N)CC(C)(C)OC4)o1	0.682%
Cc1ccc(NC(=O)C2CCCN(S(=O)(=O)c3ccc(-n4cnnn4)cc3)C2)cc1 (stereo not drawn)	-8.28%
Cc1ccc2nc(NC(=O)CSc3nnc(C)c(=O)n3N)sc2c1	10.2%
CN1CCN(CCP(=O)(c2ccccc2)c2ccccc2)CC1	13.3%
CCCCCC(=O)N/N=C(\C)c1ccc(NC(=O)c2ccco2)cc1	8.99%
C/C(=N\NC(=O)C1CC1)c1ccccc1O	2.12%
Cc1ccc(-n2c(SCC(=O)Nc3ccc4c5c(cccc35)CC4)nc(O)cc2=O)cc1	8.12%
Cc1ccc(S(=O)(=O)Nc2ccc(-n3cnnn3)cc2)cc1	5.36%
O=C1CCCc2c1[nH]c1ccc(Br)cc21	17.6%
CCN=c1scc(C)n1/N=C/c1ccsc1	-5.98%
O=C(CC1C(=O)NCCN1Cc1ccc(-c2ccccc2)cc1)NCC1CCOCC1 (stereo not drawn)	3.45%
Cc1ccc(C)c(NC(=O)c2ccccc2NS(=O)(=O)c2cc([N+](=O)[O-])ccc2C)c1	-0.824%
CCc1nnc(NC(=O)C2CCCN2C(=O)NC2CCCCC2)s1 (stereo not drawn)	12.3%
CNc1nc(-c2ccc3c(c2)CCN3C(=O)CC(C)(C)C)c(C)s1	20.1%
Cc1cccc(-n2c(Cc3ccccc3)n[nH]c2=S)c1	-0.101%
Cc1cc(C)c(S(=O)(=O)Nc2ccc(OCC(=O)O)cc2)c(C)c1	14.7%

Compound	hERG current change (%, negative = inhibition) at 1uM
Cc1oc(-c2ccc(Cl)cc2)nc1CN1CCC(C(=O)NCc2ccco2)CC1	-58.3%
O=C(NCCCN1CCCC1)Nc1cccc2ccccc12	-4.77%
Cc1[nH]n(-c2ccc(Cl)c(Cl)c2)c(=O)c1CCO	12.7%
CC1(C)COC(c2coc3ccccc3c2=O)OC1	5.93%
COc1ccc(N2CCN(C(=O)c3oc4c(c3C)C(=O)CCC4)CC2)cc1	13.8%
Cc1ccc(C(=O)NNC(=O)c2ccncc2)cc1S(=O)(=O)N1CCOCC1	8.27%
OC(CNCc1ccccc1)c1ccccc1 (stereo not drawn)	10.9%
C=CCN1C(=O)C2(C(C(=O)OCC)=C(N)Oc3ccccc32)C2=C1CCCC2=O (stereo not drawn)	3.9%
COc1ccc(CN2CCc3ccccc3C2)cc1Br	13.9%
COc1ccc(C2c3c(oc4ccccc4c3=O)C(=O)N2CC2CCCO2)cc1 (stereo not drawn)	6.25%
COc1ccc(Nc2cnn(-c3nc4ccccc4s3)c(=O)c2Cl)cc1	3.84%
CC(C)CCN(C)C1CCN(S(=O)(=O)c2ccc(F)cc2)CC1.Cl	-23%
Cc1ccc(NC(=O)CSc2nnc([C@@H]3CCCN3C(=O)OC(C)(C)C)o2)c(C)c1	14.1%
COc1ccc(S(=O)(=O)N(C)C)cc1NC(=O)CN1CCN(C(=O)C2CC2)CC1	11.8%
CCn1c(CNC(=O)Cc2ccc(OC)cc2)nnc1SCCOc1ccccc1	-0.161%
CC1CCCCC1NC(=O)CCC(=O)N1CCOc2ccc(Cl)cc21 (stereo not drawn)	0.944%
COc1cc(NC(=S)N2CCC(C(N)=O)CC2)cc(OC)c1	-2.75%
COCc1nnc(NC(=O)CSc2ccccc2)s1	-0.93%
CCOC(=O)[C@H]1[C@H]2COc3ccc(Cl)cc3[C@@H]2N2C(=O)CN(Cc3ccc(F)cc3)C(=O)[C@@]12C	17.6%
Nc1c(N(CCC2=CCCCC2)C(=O)C2CC2)c(=O)[nH]c(=O)n1Cc1ccccc1	5.13%
Cc1ccc(CC(=O)N2CCN(S(=O)(=O)c3ccccc3)CC2)cc1C	-3.83%
